About 1,200 (2.5%) of roughly 48,000 compounds were called active. Inconclusive results (about 2%) are left out.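 The calls were made as follows: active = activation of at least 60% and not above a set upper limit (about 1 call in 100 departs from these limits); inconclusive = activation of 40% to 60%, or above that upper limit; inactive = activation under 40%.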 The list shows a part of the results.
These molecules were tested against Probable G-protein coupled receptor 32 (Homo sapiens) (UniProt O75388) (assay: qHTS for Agonists of Human Resolvin D1 Receptor DRV1). Details: CHO-K1 GPR32 beta-arrestin PathHunter luminescence, 90 min; at 76.9 µM; stronger effect = higher value; zero percent set by DMSO-only wells.
Procedure, shortened: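 Cells are plated overnight, treated with compounds in DMSO for 90 minutes at 37 °C, and developed with PathHunter detection reagent for 1 hour before luminescence is read; signal reflects beta-arrestin binding to GPR32 in engineered CHO-K1 cells.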
Also: 0% is about no effect.

Sequence of UniProt O75388 (O75388 whole entry, looked up): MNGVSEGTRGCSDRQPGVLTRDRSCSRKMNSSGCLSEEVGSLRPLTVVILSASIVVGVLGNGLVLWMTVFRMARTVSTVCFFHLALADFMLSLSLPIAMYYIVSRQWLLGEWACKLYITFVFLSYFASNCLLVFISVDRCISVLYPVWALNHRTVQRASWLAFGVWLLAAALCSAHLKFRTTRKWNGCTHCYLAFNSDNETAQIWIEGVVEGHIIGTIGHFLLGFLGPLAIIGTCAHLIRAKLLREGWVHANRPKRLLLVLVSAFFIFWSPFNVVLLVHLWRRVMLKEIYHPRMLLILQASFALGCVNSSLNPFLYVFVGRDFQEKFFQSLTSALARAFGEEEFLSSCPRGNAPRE

activation, inactive:
CCOc1ccc(CCNC(=O)CS(=O)(=O)Cc2nc(-c3cccc(Cl)c3)oc2C)cc1 38.8%, COc1ccc(NC(=O)C2CCCN(C(=O)c3cnn(-c4ccccc4)c3-n3cccc3)C2)cc1 (stereo not drawn) 3.99%, CC(O)CNC(=O)C(=O)Nc1c2c(nn1-c1ccc(Cl)cc1)CSC2 (stereo not drawn) -32.4%, COc1ccc(NC(=O)CC2C(=O)N(c3ccccc3)C(=O)N2CCC2=CCCCC2)cc1 (stereo not drawn) -1.65%, Cc1ccc2c(c1)c(=O)c(C(=O)c1ccccc1)cn2Cc1ccccc1F -19.7%, COc1ccc(S(=O)(=O)N(CC(=O)Nc2ccc(OC)cc2OC)c2ccc(Cl)cc2)cc1 -3.72%, COc1cc(NC(=O)C2CCN(S(=O)(=O)c3c(C)noc3/C=C/c3cccs3)CC2)cc(OC)c1 -22.8%, CCN1C(=O)c2ccccc2S(=O)c2ccc(C(=O)NCc3ccc(C)cc3)cc21 (stereo not drawn) -3.43%, Cc1c(CNC2CCC(C)CC2)c(C(=O)O)c(C)n1Cc1ccccc1F (stereo not drawn) -0.133%, CCOc1ccccc1C1C(C(N)=O)=C(C)Nc2nc(-c3ccccc3Cl)nn21 (stereo not drawn) -25.1%, Cc1cccc(N2CC(c3nc4ccc(C)cc4[nH]3)CC2=O)c1 (stereo not drawn) -8.47%, CCC1CN(C(=O)Nc2ccccc2C(F)(F)F)c2ccccc2O1 (stereo not drawn) -27%, COc1ccc(/C=C(/C#N)c2nc(-c3cc4ccccc4oc3=O)cs2)cc1 8.78%, CCOc1ccc(NC(=O)CC2C(=O)N(c3ccc(C)cc3)C(=O)N2C2CCCCC2)cc1 (stereo not drawn) -7.32%, O=C(NC1(C(F)(F)F)N=C(c2ccccc2)N(C2CCCCC2)C1=O)c1ccc(F)cc1 (stereo not drawn) 0.854%, Cc1cc(C)n(CCc2nc3c4ccccc4nc(SCc4ccc(Cl)cc4)n3n2)n1 -16.8%, C=CCSCC1Nc2cc(Cl)c(S(N)(=O)=O)cc2S(=O)(=O)N1 (stereo not drawn) -41.6%, Cn1ccc2cc(S(=O)(=O)N3CCCC(C(=O)NCc4ccc(F)cc4)C3)ccc21 (stereo not drawn) -4.32%, COC(=O)c1ccc(C2C=C(c3ccc(Cl)cc3)Nc3nc4ccccc4n32)cc1 (stereo not drawn) -8.11%, CC(=O)Nc1ccc(NC(=O)c2cc3c(=O)n(Cc4cccnc4)ccc3nc2C)cc1 -8.54%, N#Cc1cccc(NC(=O)C2CCN(c3cnccn3)CC2)c1 -6.89%, O=C(CSc1nc(-c2ccc(F)cc2)nc2c1Cc1ccccc1O2)Nc1cccc(C(=O)O)c1 -0.0865%, CCOc1ccccc1-c1noc(CCCC(=O)Nc2cccc(C(F)(F)F)c2)n1 10.8%, CC1CCCCN1C(=O)c1ccc2c(c1)N(Cc1cccc(Cl)c1)C(=O)c1ccccc1S2=O (stereo not drawn) -21.6%, CCCCNC(=O)c1cccc(-n2cnc3cccnc32)c1C 2.05%, Cc1ccc(-n2nc(C(C)(C)C)cc2NC(=O)Nc2ccc(OCCN3CCOCC3)c3ccccc23)cc1 22%, Cc1cc(N(C)Cc2ccccc2)n2nc(-c3ccc(C(C)(C)C)cc3)nc2n1 -40.1%, CCOc1ccc(-c2c(C)nn3c(C)c(C(=O)NCc4ccc(Cl)cc4)cnc23)cc1OCC -0.749%, CCc1ccc(-n2nc3cc(C)c(NC(=O)c4ccccc4C)cc3n2)cc1 -45.1%, CC1CCN(c2nc3c(-c4cccc(Br)c4)nnn3c3ccccc23)CC1 -15.2%, COc1ccc(OCCn2nnc3sc4c(c3c2=O)CCC(C(C)(C)C)C4)cc1 (stereo not drawn) -1.56%, COc1ccc(CNC(=O)CCc2c(C)nn(-c3ccc(N4CCCCC4)nn3)c2C)cc1 -16.8%, CCCCCn1c(=O)[nH]c2cc(C(=O)NCCN(C)CCCC)ccc2c1=O 8.55%, CCC(NC(=O)Nc1cc(Cl)ccc1OC)c1c(-n2cccc2)sc2c1CCN(C)C2 (stereo not drawn) -31.4%, N=c1n(CCO)c2ccccc2n1Cc1ccccc1F -14.7%, COc1ccc(CCNC(=O)c2cc(=O)c3cc(C)cc(C)c3o2)cc1OC 7.8%, O=C(CSc1c2c(nc3ccc(Cl)cc13)CCCC2)NCc1ccccc1Cl -18.6%, O=C(OCc1ccco1)c1ccc2c(c1)N(Cc1cccc(F)c1)C(=O)c1ccccc1S2 -7.55%, CCC(Sc1nc2ccccc2c2nc(CCn3c(C)nc4ccccc43)nn12)C(=O)Nc1ccc(F)cc1 (stereo not drawn) -5.33%, Cc1ccc(-c2cc(C(=O)OCC(=O)c3ccccc3)c3cccc(Cl)c3n2)cc1 8.06%, CCOc1ccccc1NC(=O)CC(c1ccc(F)cc1)N1Cc2ccccc2C1=O (stereo not drawn) -19.3%, COc1ccc(Br)c(C(=O)Nc2cc3c(cc2N2CCCC2)n(C)c(=O)c(=O)n3C)c1 -3.8%, O=C(Nc1ccc(F)cc1)c1ccc(Cn2nc(N3CCN(c4ccccc4)CC3)ccc2=O)o1 -2%, COC(=O)c1ccc(NC(=O)CCc2c(C)nn(-c3ccc(N4CCOCC4)nn3)c2C)cc1 0.748%, COc1ccccc1-c1nc2c(c(SCc3ccc(F)cc3Cl)n1)Cc1c(CO)cnc(C)c1O2 16%, CCOC(=O)c1c(C)[nH]c(C)c1S(=O)(=O)N1CCC(C(=O)N2CCN(c3cccc(C)c3C)CC2)CC1 14.2%, COc1ccc(CCNc2nc(-c3ccc(Cl)cc3)cc(C(F)(F)F)n2)cc1OC -1.45%, COc1cccc(-c2cc(C(=O)N3CCN(c4ccccc4OC)CC3)no2)c1 -21.2%, COc1ccc(Cl)cc1NC(=O)Cc1coc2c(C)c(C)ccc12 -7.29%, CCc1ccc(NC(=O)c2sc3nc4c(cc3c2N)CN(CC)CC4)cc1 -4.31%

activation, active:
CCOc1cccc(C(=O)Nc2nnc(S(=O)(=O)N(C)c3ccc(C)cc3)s2)c1 63.1%, COc1ccc(-c2nc(SCC(=O)c3ccc(Br)cc3)n[nH]2)cc1 114%, Cc1cc(O)c2c(O)c3c(O)cccc3cc2c1 108%

Source: PubChem BioAssay AID1346428 (National Center for Advancing Translational Sciences (NCATS), 2018)
